Assay results: article PMC7480101
These are yes or no findings as the source states them, for the method shown. For some assays here: Binding seen in cells or lysates may run through a third protein. Some binding calls cover weakened binding; strength is not graded here. For some assays here: Where a sequence is shown, tags or fusion partners need not be part of it.

By UniProt entry, the sequences of proteins in these tests, tags left out. Where a name states a change or a piece, a line headed by the entry shows the natural chain unless it says otherwise. Chains listed by the source or under a name are the forms on record and can include a tag or linker.
UniProt Q96CV9: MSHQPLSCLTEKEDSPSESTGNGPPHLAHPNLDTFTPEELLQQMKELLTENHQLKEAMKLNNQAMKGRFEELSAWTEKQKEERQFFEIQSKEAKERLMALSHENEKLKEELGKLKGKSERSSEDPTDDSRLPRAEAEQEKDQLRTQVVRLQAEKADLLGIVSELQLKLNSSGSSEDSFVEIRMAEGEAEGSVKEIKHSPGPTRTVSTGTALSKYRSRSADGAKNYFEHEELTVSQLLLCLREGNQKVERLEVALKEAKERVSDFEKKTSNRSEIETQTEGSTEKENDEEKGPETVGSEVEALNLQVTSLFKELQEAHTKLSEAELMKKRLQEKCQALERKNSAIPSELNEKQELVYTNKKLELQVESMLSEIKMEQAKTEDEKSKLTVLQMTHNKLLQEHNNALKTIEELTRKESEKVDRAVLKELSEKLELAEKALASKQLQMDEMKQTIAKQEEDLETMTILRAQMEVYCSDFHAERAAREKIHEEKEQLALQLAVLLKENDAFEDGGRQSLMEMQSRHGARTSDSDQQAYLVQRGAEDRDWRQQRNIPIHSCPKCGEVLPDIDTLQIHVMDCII
3FLAG-hAG-OPTN(4LA, S473E) (Q96CV9, form named): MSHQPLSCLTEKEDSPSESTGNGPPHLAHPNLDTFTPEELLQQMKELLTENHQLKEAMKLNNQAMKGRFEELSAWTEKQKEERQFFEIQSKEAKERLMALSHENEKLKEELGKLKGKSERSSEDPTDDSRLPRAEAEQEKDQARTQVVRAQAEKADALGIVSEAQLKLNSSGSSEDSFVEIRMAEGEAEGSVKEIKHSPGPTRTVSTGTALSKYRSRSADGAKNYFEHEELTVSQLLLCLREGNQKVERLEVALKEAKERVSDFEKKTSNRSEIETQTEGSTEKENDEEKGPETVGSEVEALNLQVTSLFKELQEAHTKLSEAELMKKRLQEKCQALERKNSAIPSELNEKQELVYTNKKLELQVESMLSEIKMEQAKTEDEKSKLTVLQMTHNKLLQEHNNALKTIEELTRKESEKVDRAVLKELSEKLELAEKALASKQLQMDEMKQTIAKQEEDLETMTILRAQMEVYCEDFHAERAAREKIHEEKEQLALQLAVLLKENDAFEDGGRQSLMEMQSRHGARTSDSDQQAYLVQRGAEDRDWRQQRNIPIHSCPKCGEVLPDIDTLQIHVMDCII
hAG-OPTN(301-577, S473E) (Q96CV9, form named): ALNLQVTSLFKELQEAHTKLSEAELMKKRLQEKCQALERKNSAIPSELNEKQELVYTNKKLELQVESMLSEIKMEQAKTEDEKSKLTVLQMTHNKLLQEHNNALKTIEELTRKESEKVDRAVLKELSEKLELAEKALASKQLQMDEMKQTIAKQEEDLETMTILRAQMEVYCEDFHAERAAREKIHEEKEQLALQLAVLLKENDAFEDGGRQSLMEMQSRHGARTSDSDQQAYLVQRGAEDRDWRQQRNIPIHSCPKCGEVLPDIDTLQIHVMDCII
hAG-OPTN(128-577, S473E) (Q96CV9, form named): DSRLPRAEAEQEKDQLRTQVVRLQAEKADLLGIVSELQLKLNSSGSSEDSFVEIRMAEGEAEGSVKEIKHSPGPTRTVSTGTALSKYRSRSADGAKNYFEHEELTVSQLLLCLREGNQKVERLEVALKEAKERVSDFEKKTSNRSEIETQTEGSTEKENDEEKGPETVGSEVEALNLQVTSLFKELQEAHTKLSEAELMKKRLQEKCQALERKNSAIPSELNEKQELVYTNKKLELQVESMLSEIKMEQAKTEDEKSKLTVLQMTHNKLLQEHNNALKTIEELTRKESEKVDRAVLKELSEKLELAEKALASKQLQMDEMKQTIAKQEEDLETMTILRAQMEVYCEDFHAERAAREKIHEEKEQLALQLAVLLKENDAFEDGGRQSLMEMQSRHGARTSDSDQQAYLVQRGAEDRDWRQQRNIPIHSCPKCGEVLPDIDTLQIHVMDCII
hAG-OPTN(143-5A-147, S473E) (Q96CV9, form named): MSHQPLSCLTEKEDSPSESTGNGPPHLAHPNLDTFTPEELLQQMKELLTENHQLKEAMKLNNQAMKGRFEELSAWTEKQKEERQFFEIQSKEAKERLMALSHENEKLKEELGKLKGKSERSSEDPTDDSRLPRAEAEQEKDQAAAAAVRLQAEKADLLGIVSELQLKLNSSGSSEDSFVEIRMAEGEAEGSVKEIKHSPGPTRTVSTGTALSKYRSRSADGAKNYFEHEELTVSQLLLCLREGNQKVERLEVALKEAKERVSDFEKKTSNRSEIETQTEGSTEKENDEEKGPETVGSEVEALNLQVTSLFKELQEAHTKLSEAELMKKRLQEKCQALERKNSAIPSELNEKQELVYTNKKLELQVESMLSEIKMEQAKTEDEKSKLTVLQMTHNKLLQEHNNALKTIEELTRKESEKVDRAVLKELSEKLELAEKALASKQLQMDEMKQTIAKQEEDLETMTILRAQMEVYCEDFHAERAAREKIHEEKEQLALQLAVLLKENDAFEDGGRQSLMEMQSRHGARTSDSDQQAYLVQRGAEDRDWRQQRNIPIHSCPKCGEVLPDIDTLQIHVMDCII
hAG-OPTN(210-577, S473E) (Q96CV9, form named): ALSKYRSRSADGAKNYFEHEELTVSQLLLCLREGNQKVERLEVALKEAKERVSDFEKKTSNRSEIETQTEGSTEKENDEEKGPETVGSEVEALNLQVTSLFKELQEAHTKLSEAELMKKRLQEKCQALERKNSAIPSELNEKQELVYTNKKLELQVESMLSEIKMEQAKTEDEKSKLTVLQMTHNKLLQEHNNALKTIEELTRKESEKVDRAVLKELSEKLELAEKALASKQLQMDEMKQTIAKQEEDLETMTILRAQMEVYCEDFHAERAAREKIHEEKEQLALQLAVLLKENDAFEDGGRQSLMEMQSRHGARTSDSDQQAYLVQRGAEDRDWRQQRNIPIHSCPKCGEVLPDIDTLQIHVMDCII
hAG-OPTN(190-577, S473E) (Q96CV9, form named): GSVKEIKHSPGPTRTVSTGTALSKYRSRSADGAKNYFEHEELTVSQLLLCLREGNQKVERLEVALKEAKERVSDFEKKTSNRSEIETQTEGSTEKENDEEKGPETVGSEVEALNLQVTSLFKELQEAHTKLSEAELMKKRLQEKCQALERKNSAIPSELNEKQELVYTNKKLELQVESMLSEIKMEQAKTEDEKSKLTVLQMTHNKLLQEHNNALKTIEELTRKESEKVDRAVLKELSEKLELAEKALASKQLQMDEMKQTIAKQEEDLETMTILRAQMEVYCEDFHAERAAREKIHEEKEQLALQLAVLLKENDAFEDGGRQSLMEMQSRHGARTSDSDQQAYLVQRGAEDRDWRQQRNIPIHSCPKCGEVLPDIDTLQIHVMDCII
hAG-OPTN(401-577, S473E) (Q96CV9, form named): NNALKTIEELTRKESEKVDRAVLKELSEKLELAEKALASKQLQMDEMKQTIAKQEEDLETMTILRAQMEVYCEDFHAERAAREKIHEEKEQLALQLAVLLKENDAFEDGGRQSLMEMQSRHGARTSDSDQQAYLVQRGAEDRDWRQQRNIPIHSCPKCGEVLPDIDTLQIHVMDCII
hAG-OPTN(133-5A-137, S473E) (Q96CV9, form named): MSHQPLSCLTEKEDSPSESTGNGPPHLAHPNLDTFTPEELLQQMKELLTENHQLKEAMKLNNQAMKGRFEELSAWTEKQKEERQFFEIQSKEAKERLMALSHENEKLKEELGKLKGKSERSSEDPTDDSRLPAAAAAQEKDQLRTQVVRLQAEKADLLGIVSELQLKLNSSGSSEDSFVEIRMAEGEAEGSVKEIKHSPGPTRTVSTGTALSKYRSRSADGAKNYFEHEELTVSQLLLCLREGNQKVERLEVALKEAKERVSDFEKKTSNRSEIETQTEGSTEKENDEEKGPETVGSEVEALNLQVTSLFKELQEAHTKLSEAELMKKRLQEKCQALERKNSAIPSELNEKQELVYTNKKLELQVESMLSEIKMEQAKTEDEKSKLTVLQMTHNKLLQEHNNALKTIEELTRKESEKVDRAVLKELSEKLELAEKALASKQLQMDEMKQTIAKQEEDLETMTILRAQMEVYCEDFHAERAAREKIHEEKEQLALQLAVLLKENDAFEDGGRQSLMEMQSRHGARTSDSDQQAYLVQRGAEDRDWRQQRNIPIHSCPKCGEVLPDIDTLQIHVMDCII
hAG-OPTN(150-577, S473E) (Q96CV9, form named): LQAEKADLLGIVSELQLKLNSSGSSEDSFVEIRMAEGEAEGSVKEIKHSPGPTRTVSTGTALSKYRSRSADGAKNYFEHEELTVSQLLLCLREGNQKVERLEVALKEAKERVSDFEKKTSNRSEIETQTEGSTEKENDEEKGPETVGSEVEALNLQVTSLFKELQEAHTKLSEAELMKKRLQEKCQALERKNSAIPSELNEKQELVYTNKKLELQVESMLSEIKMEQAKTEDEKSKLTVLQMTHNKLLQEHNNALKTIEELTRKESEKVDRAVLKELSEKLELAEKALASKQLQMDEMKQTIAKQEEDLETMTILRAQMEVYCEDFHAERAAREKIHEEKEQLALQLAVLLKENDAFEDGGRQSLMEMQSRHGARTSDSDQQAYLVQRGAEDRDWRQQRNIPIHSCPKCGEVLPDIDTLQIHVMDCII
hAG-OPTN(148-5A-152, S473E) (Q96CV9, form named): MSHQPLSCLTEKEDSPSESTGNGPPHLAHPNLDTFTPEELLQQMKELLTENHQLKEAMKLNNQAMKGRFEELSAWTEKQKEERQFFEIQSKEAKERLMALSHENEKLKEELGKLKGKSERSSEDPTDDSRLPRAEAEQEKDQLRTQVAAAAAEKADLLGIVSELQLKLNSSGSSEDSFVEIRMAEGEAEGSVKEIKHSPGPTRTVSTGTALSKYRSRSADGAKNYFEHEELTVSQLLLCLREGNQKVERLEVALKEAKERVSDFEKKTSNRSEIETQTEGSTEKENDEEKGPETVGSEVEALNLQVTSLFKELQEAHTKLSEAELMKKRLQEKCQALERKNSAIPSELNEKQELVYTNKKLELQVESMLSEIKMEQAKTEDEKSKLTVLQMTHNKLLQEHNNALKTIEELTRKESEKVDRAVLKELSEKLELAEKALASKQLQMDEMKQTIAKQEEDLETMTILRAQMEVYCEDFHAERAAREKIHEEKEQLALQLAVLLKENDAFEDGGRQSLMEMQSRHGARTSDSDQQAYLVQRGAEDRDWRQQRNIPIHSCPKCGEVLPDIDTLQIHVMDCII
hAG-OPTN(170-577, S473E) (Q96CV9, form named): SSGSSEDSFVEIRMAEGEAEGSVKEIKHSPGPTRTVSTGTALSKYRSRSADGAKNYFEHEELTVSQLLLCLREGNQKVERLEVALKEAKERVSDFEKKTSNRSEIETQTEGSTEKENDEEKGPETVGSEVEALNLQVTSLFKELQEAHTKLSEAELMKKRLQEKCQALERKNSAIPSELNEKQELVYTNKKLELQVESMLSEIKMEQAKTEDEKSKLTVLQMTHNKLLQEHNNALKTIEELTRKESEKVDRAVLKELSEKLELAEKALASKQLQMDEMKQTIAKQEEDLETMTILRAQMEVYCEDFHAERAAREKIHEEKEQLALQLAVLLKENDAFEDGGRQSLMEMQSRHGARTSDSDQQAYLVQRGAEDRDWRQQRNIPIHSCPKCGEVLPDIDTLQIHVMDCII
hAG-OPTN(128-5A-132, S473E) (Q96CV9, form named): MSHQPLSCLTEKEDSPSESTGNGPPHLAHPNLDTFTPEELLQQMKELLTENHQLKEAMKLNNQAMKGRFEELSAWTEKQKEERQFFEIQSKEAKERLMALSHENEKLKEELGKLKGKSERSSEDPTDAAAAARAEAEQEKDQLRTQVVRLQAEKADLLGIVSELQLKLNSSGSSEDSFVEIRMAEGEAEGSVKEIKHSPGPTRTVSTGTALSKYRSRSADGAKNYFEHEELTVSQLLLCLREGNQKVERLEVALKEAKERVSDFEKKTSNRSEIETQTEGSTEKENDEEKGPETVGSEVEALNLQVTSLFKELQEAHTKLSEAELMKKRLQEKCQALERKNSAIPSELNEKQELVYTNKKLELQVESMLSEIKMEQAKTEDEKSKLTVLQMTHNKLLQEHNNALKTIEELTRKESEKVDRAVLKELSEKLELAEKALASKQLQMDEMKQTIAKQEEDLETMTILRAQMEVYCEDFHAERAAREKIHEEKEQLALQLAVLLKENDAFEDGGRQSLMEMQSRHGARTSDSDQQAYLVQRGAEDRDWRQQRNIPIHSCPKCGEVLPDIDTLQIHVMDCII
hAG-OPTN(138-5A-142, S473E) (Q96CV9, form named): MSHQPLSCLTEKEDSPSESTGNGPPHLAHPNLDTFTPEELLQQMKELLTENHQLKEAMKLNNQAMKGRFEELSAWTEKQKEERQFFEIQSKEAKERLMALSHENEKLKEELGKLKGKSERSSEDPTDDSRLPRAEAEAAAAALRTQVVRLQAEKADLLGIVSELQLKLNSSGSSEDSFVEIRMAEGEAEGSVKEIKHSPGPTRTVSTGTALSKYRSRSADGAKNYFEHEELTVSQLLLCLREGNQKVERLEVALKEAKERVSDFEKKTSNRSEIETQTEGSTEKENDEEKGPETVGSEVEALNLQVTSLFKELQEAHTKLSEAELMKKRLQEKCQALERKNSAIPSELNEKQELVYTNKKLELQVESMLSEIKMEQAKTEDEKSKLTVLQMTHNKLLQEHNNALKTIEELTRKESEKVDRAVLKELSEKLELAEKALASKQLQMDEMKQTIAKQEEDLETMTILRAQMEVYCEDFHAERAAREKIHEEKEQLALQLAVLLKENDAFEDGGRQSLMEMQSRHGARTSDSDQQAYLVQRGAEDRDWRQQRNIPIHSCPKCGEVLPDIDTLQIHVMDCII

Tests used:
hAG-OPTN (human) = hAG-OPTN (human) (UniProt Q96CV9); test: Fluoppi (phase-separated fluorescent foci in cells); hAG-tagged autophagy adaptor and HA-Ash-6Ub transiently co-expressed in HeLa (WT, Penta KO, FIP200 KO, ATG5 KO, ATG9A KO) or HCT116 (WT, TBK1-/-) cells; foci formation and incorporation of a third protein into the foci read by immunostaining and confocal microscopy; some samples with 2 µM BX-795 for 15 h
[1] = target: 3FLAG-hAG-OPTN(4LA, S473E) (human) (UniProt Q96CV9); test: co-IP; HeLa cells transiently expressing 3FLAG-hAG-OPTN and HA-Ash-6Ub; 1 mM DSP cross-linking, 1% NP-40 buffer (20 mM Tris-HCl pH 8.0, 150 mM NaCl, 1 mM EDTA), sonication, anti-DDDDK-tag gel 90 min at 4°C, immunoblot
[2] = target: 3FLAG-hAG-OPTN(M44Q/L54Q, S473E) (human) (UniProt Q96CV9); test: as above
[3] = target: hAG-OPTN(301-577, S473E) (human) (UniProt Q96CV9); test: Fluoppi (phase-separated fluorescent foci in cells); hAG-tagged autophagy adaptor and HA-Ash-6Ub transiently co-expressed in HeLa (WT, Penta KO, FIP200 KO, ATG5 KO, ATG9A KO) or HCT116 (WT, TBK1-/-) cells; foci formation and incorporation of a third protein into the foci read by immunostaining and confocal microscopy; some samples with 2 µM BX-795 for 15 h
[4] = target: hAG-OPTN(128-577, S473E) (human) (UniProt Q96CV9); test: as above
[5] = target: hAG-OPTN(143-5A-147, S473E) (human) (UniProt Q96CV9); test: as above
[6] = target: hAG-OPTN(210-577, S473E) (human) (UniProt Q96CV9); test: as above
[7] = target: hAG-OPTN(190-577, S473E) (human) (UniProt Q96CV9); test: as above
[8] = target: hAG-OPTN(401-577, S473E) (human) (UniProt Q96CV9); test: as above
[9] = target: hAG-OPTN(133-5A-137, S473E) (human) (UniProt Q96CV9); test: as above
[10] = target: hAG-OPTN(150-577, S473E) (human) (UniProt Q96CV9); test: as above
[11] = target: hAG-OPTN(148-5A-152, S473E) (human) (UniProt Q96CV9); test: as above
[12] = target: hAG-OPTN(170-577, S473E) (human) (UniProt Q96CV9); test: as above
hAG-OPTN(S473E) (human) = hAG-OPTN(S473E) (human) (UniProt Q96CV9); test: as above
[13] = target: hAG-OPTN(128-5A-132, S473E) (human) (UniProt Q96CV9); test: as above
[14] = target: hAG-OPTN(138-5A-142, S473E) (human) (UniProt Q96CV9); test: as above

B1: 3FLAG-TBK1 (enzyme, UniProt Q9UHD2 1-729)
chain: MQSTSNHLWLLSDILGQGATANVFRGRHKKTGDLFAIKVFNNISFLRPVDVQMREFEVLKKLNHKNIVKLFAIEEETTTRHKVLIMEFCPCGSLYTVLEEPSNAYGLPESEFLIVLRDVVGGMNHLRENGIVHRDIKPGNIMRVIGEDGQSVYKLTDFGAARELEDDEQFVSLYGTEEYLHPDMYERAVLRKDHQKKYGATVDLWSIGVTFYHAATGSLPFRPFEGPRRNKEVMYKIITGKPSGAISGVQKAENGPIDWSGDMPVSCSLSRGLQVLLTPVLANILEADQEKCWGFDQFFAETSDILHRMVIHVFSLQQMTAHKIYIHSYNTATIFHELVYKQTKIISSNQELIYEGRRLVLEPGRLAQHFPKTTEENPIFVVSREPLNTIGLIYEKISLPKVHPRYDLDGDASMAKAITGVVCYACRIASTLLLYQELMRKGIRWLIELIKDDYNETVHKKTEVVITLDFCIRNIEKTVKVYEKLMKINLEAAELGEISDIHTKLLRLSSSQGTIETSLQDIDSRLSPGGSLADAWAHQEGTHPKDRNVEKLQVLLNCMTEIYYQFKKDKAERRLAYNEEQIHKFDKQKLYYHATKAMTHFTDECVKKYEAFLNKSEEWIRKMLHLRKQLLSLTNQCFDIEEEVSKYQEYTNELQETLPQKMFTASSGIKHTMTPIYPSSNTLVEMTLGMKKLKEEMEGVVKELAENNHILERFGSLTMDGGLRNVDCL
With B1 the binding (hAG-OPTN (human)) was “binds”.

B2: TBK1 (enzyme, UniProt Q9UHD2 1-729)
chain: MQSTSNHLWLLSDILGQGATANVFRGRHKKTGDLFAIKVFNNISFLRPVDVQMREFEVLKKLNHKNIVKLFAIEEETTTRHKVLIMEFCPCGSLYTVLEEPSNAYGLPESEFLIVLRDVVGGMNHLRENGIVHRDIKPGNIMRVIGEDGQSVYKLTDFGAARELEDDEQFVSLYGTEEYLHPDMYERAVLRKDHQKKYGATVDLWSIGVTFYHAATGSLPFRPFEGPRRNKEVMYKIITGKPSGAISGVQKAENGPIDWSGDMPVSCSLSRGLQVLLTPVLANILEADQEKCWGFDQFFAETSDILHRMVIHVFSLQQMTAHKIYIHSYNTATIFHELVYKQTKIISSNQELIYEGRRLVLEPGRLAQHFPKTTEENPIFVVSREPLNTIGLIYEKISLPKVHPRYDLDGDASMAKAITGVVCYACRIASTLLLYQELMRKGIRWLIELIKDDYNETVHKKTEVVITLDFCIRNIEKTVKVYEKLMKINLEAAELGEISDIHTKLLRLSSSQGTIETSLQDIDSRLSPGGSLADAWAHQEGTHPKDRNVEKLQVLLNCMTEIYYQFKKDKAERRLAYNEEQIHKFDKQKLYYHATKAMTHFTDECVKKYEAFLNKSEEWIRKMLHLRKQLLSLTNQCFDIEEEVSKYQEYTNELQETLPQKMFTASSGIKHTMTPIYPSSNTLVEMTLGMKKLKEEMEGVVKELAENNHILERFGSLTMDGGLRNVDCL
With B2 the binding [1] was “binds”, the binding [2] was “no binding” and the binding [3] was “no binding”. The binding [4] was “no binding”, the binding [5] was “binds” and the binding [6] was “no binding”. The binding [7] was “no binding”, the binding [8] was “no binding” and the binding [9] was “binds”. For the same binder, the binding [10] was “no binding”, the binding [11] was “binds” and the binding [12] was “no binding”. For the same binder, the binding (hAG-OPTN(S473E) (human)) was “binds”, the binding [13] was “binds” and the binding [14] was “binds”.

B3: WIPI2 (protein, UniProt Q9Y4P8 1-454)
chain: MNLASQSGEAGAGQLLFANFNQDNTEVKGASRAAGLGRRAVVWSLAVGSKSGYKFFSLSSVDKLEQIYECTDTEDVCIVERLFSSSLVAIVSLKAPRKLKVCHFKKGTEICNYSYSNTILAVKLNRQRLIVCLEESLYIHNIRDMKVLHTIRETPPNPAGLCALSINNDNCYLAYPGSATIGEVQVFDTINLRAANMIPAHDSPLAALAFDASGTKLATASEKGTVIRVFSIPEGQKLFEFRRGVKRCVSICSLAFSMDGMFLSASSNTETVHIFKLETVKEKPPEEPTTWTGYFGKVLMASTSYLPSQVTEMFNQGRAFATVRLPFCGHKNICSLATIQKIPRLLVGAADGYLYMYNLDPQEGGECALMKQHRLDGSLETTNEILDSASHDCPLVTQTYGAAAGKGTYVPSSPTRLAYTDDLGAVGGACLEDEASALRLDEDSEHPPMILRTD
In the case of B3, the binding (hAG-OPTN (human)) is reported as “no binding”.
